Experimental data: the antibiotic and cytotoxicity screens of Wong et al. (2023)
The other results are listed elsewhere or left out.

These molecules were tested on S. aureus RN4220 (assay: growth inhibition call (relative growth <= 0.2)). Conditions: 50 µM.

| SMILES | growth inhibition call |
| --- | --- |
| C[C@@H]1CCCCO[C@H](CN(C)C(=O)Nc2cccc3ccccc23)[C@H](C)CN([C@H](C)CO)C(=O)c2cc(NS(=O)(=O)c3cn(C)cn3)ccc2O1 | inactive |
| C[C@H]1CN([C@@H](C)CO)C(=O)c2cccc(NS(=O)(=O)c3cn(C)cn3)c2O[C@H]1CN(C)CC1CC1 | inactive |
| C[C@H](CO)N1C[C@H](C)[C@H](CN(C)Cc2ccc3c(c2)OCCN3C)OCc2cn(nn2)CCCC1=O | inactive |
| C[C@@H]1CN([C@@H](C)CO)C(=O)c2cc(NC(=O)Cc3cn(C)c4ccccc34)ccc2O[C@@H]1CN(C)CC1CCCCC1 | inactive |
| NCc1ccccc1CN1CCOCC1 | inactive |
| COc1ccc2c3c(n(c2c1)C)[C@H](CO)N(C[C@]13CCN(CC1)C(=O)c1ccncc1)C(=O)c1cnccn1 | inactive |
| COc1ccc(S(=O)(=O)N(C)C[C@@H]2Oc3ccc(NC(=O)Nc4c(C)noc4C)cc3CC(=O)N([C@@H](C)CO)C[C@@H]2C)cc1 | inactive |
| CC(C)NC(=O)Nc1ccc2c(c1)C(=O)N([C@H](C)CO)C[C@H](C)[C@H](CN(C)C(=O)C1CCCCC1)OCCCC[C@@H](C)O2 | inactive |
| C[C@@H]1CCCCO[C@H](CN(C)C(=O)Cc2ccccc2)[C@@H](C)CN([C@@H](C)CO)C(=O)c2cc(NC(=O)NC3CCCCC3)ccc2O1 | inactive |
| C[C@@H]1CN([C@@H](C)CO)C(=O)c2cccc(NC(=O)c3cnccn3)c2O[C@H]1CN(C)Cc1ccc(C(=O)O)cc1 | inactive |
| C[C@@H]1CN([C@@H](C)CO)C(=O)c2cc(C#Cc3ccc(F)cc3)cnc2O[C@H]1CN(C)CC1CCOCC1 | inactive |
| S=C(c1cccs1)N1CCCC1 | inactive |
| CC(C)N1C[C@@H](C)[C@H](CN(C)Cc2ccc(Oc3ccccc3)cc2)Oc2c(C(=O)O)cccc2C1=O | inactive |
| COc1ccc2c(c(Br)c(C(=O)O)n2CCCOc2cccc3ccccc23)c1-c1ccccc1C | active |
| CNC(=O)C[C@@H]1CC[C@@H]2[C@H](COC[C@H](O)CN2C(=O)Nc2cccc(OC)c2)O1 | inactive |
| CN(C)C(=O)CN1CCC2(CC1)O[C@H](C(=O)NCc1ccccn1)Cn1ccnc12 | inactive |
| C[C@@H]1CCCCO[C@@H](CN(C)Cc2ccc(C(=O)Nc3ccccc3N)cc2)[C@@H](C)CN([C@H](C)CO)C(=O)c2cc(NS(=O)(=O)c3cccs3)ccc2O1 | inactive |
| C[C@H]1CN([C@@H](C)CO)C(=O)c2cccc(NC(=O)c3nc4ccccc4s3)c2O[C@@H]1CN(C)C(=O)Nc1ccc(C(F)(F)F)cc1 | inactive |
| Cc1cc(C)c2nc(-c3ccccn3)cc(C(=O)Nc3ccc(S(=O)(=O)Nc4onc(C)c4C)cc3)c2c1 | inactive |
| C[C@@H](NS(=O)(=O)C1CN(C(=O)OCc2ccccc2)C1)C(N)=O | inactive |
| O=C(C[C@@H]1CC[C@@H]2[C@H](COC[C@@H](O)CN2S(=O)(=O)c2cccc(Cl)c2)O1)N1CCOCC1 | inactive |
| COc1ccc(CN(C)C[C@@H]2OCCCC[C@@H](C)Oc3ccc(NC(=O)CCC(F)(F)F)cc3C(=O)N([C@H](C)CO)C[C@H]2C)cc1 | inactive |
| C[C@@H]1CN([C@H](C)CO)C(=O)Cc2cc(NC(=O)Nc3ccc(C(F)(F)F)cc3)ccc2O[C@H]1CN(C)CC1CCCCC1 | inactive |
| C[C@H](CO)N1C[C@H](C)[C@H](CN(C)C(=O)C2CCOCC2)Oc2cc(C3=CCCC3)ccc2S1(=O)=O | inactive |
| COCN(C#N)c1nc(N(C)C)nc(N(C)C)n1 | inactive |
| Cn1cnc(-c2cc3nccc(Oc4ccc(NC(=S)NC(=O)Cc5ccccc5)cc4F)c3s2)c1 | inactive |
| Cc1noc(C)c1S(=O)(=O)Nc1ccc2c(c1)CC(=O)N([C@@H](C)CO)C[C@H](C)[C@H](CN(C)CC1CC1)O2 | inactive |
| N#C/C(=C\c1cccs1)c1csc2ccc(Cl)cc12 | inactive |
